The values below come from publication PMC10303200 (ACS Central Science, 2023).

The target in this assay is T1, AAL (Aleuria Aurantia lectin) (Aleuria aurantia, UniProt P18891).
T1 construct: purchased Vector Laboratories (Newark, CA, USA)
T1 sequence (P18891 1-313): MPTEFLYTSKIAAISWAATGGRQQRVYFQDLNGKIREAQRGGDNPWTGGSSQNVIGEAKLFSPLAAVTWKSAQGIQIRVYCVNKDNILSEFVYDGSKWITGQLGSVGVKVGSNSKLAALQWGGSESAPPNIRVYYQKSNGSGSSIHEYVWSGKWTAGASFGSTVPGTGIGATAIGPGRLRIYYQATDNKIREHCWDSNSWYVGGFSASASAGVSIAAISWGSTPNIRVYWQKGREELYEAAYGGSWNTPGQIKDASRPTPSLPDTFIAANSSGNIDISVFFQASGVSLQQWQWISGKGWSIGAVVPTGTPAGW
In words: COIN-CaR-nMS. More on the design: key: NQ indicates glycan ligand detected but not quantified due to low relative abundance. Particulars: N-glycan natural libraries; pH 6.9. From the text: For most glycosylated GBPs, glycan binding measurements by nMS are challenging because the heterogeneity (micro- and macroheterogeniety) of GBP species makes quantifying the free and ligand-bound glycoforms difficult. As a result, detection of glycan ligands of glycosylated GBPs is usually performed using CaR-nMS. In CaR-nMS, glycan ligands bound (noncovalently) to a GBP are released as ions in the gas phase by collisional activation of the GBP-glycan complexes and detected. The results of CaR-nMS screening performed on glycan libraries of known concentrations enable GBP-glycan affinity rankings to be constructed from the relative abundances of released ligands. Generating titration curves from the relative abundances of released ligands in CaR-nMS experiments is generally not possible due to tip-to-tip variability in released ligand signal. The COIN approach enables quantification with CaR-nMS (COIN-CaR-nMS). […] Because PL dissociates to free P and L in the COIN-CaR-nMS experiment, Ft is calculated from eq 14 [drawing 19] […]
While the glycan specificities of lectins commonly used in lectin arrays[37] and biotechnology applications have been extensively investigated,[38] there is a dearth of quantative affinity data. […] Where indicated, Kd were also measured for purified oligosaccharide ligands to provide additional context to the reported affinity ranking.

As to `CC(=O)N[C@H]1[C@H](O[C@H]2[C@H](O)[C@@H](NC(C)=O)C(O)O[C@@H]2CO[C@@H]2O[C@@H](C)[C@@H](O)[C@@H](O)[C@@H]2O)O[C@H](CO)[C@@H](O[C@@H]2O[C@H](CO[C@H]3O[C@H](CO)[C@@H](O)[C@H](O)[C@@H]3O[C@@H]3O[C@H](CO)[C@@H](O[C@@H]4O[C@H](CO)[C@H](O)[C@H](O)[C@H]4O)[C@H](O)[C@H]3NC(C)=O)[C@@H](O)[C@H](O[C@H]3O[C@H](CO)[C@@H](O)[C@H](O)[C@@H]3O[C@@H]3O[C@H](CO)[C@@H](O[C@@H]4O[C@H](CO)[C@H](O)[C@H](O)[C@H]4O)[C@H](O)[C@H]3NC(C)=O)[C@@H]2O)[C@@H]1O` (stereo partly shown) [HexNAc4Hex5Fuc1], the Kd entry is “NQ”.
